Like-named read-outs stand apart in the source and are kept apart here.
Molecular target: SARS-CoV-2 NSP14 (Severe acute respiratory syndrome coronavirus 2, UniProt P0DTD1)
Experiment: biochemical
[1] = TDI-015051 series, retrospective VS set, biochemical MTase assay, read-out: Merged IC50
[2] = Hill slope of the concentration-response fit
[3] = maximum response, LUM % inhibition, read-out: SARS-CoV-2 NSP14 inhibition: Maximum response (%)
[4] = read-out: SARS-CoV-2 NSP14 inhibition: IC50
[5] = LUM % inhibition, read-out: SARS-CoV-2 NSP14 inhibition: IC50
[6] = LUM % inhibition, read-out: SARS-CoV-2 NSP14 inhibition: Maximum response
[7] = fit of concentration-response curve
[8] = Merged IC50 (µM), TDI-015051 series, retrospective VS set, biochemical MTase assay

| Structure (SMILES) | SARS-CoV-2 NSP14 inhibition: Hill slope [2] | Emax [3] [%] | IC50 [4] [µM] | IC50 [5] [µM] | Emax [6] [%] | SARS-CoV-2 NSP14 inhibition: Hill slope [7] | further results |
| --- | --- | --- | --- | --- | --- | --- | --- |
| Cc1ccccc1CNC(=O)c1cc(S(=O)(=O)N2CCc3ccccc3C2)c(C)n1CCO [TDI-013770, Cc1ccccc1CNC(=O)c1cc(S(=O)(=O)N2CCc3ccccc3C2)c(C)n1CCO] |  |  |  |  |  |  | IC50 [1]: 0.077 µM |
| Cc1cc(CC(=O)NCc2cccc(NC(=O)c3cccc4ncccc34)c2)n[nH]1 [RU-0833686] | 0.831 | 5.67 | > 62.5 |  |  |  |  |
| COc1ccc(CCNC(=O)c2ccc(C)c(S(=O)(=O)Nc3ccccc3)c2)cc1OC [RU-0833944] |  |  |  | > 125 | 16.4 | 1.54 |  |
| CN(C1CCCCC1)S(=O)(=O)c1cccc(C(=O)NCCc2c[nH]c3ccccc23)c1 [RU-0833639] | -47.8 | -2.15 | > 62.5 |  |  |  |  |
| O=C(CCn1cnc2ccccc2c1=O)NCCn1ccc2ccc(Br)cc21 [RU-0833882] |  |  |  | > 125 | 10.6 | 45.1 |  |
| Cn1nccc1CNC(=O)c1ccc(Cl)c(S(=O)(=O)c2ccc3[nH]ncc3c2)c1 [TDI-016684, Cn1nccc1CNC(=O)c1ccc(Cl)c(S(=O)(=O)c2ccc3[nH]ncc3c2)c1] |  |  |  |  |  |  | IC50 [1]: 0.073 µM |
| Cc1c(S(=O)(=O)c2ccc3[nH]nc(F)c3c2)cc(C(=O)NCc2c[nH]c(=O)c3cccnc23)n1C [TDI-016647, Cc1c(S(=O)(=O)c2ccc3[nH]nc(F)c3c2)cc(C(=O)NCc2c[nH]c(=O)c3cccnc23)n1C] |  |  |  |  |  |  | IC50 [8]: 0.00332 µM |
| COc1ccc(CCNC(=O)c2cccc(S(=O)(=O)Nc3ccccc3F)c2)cc1OC [RU-0833651] | 12.2 | 0.99 | > 62.5 |  |  |  |  |
| CC(=O)N1CCN(S(=O)(=O)c2cccc(C(=O)NC3CCCc4ccccc43)c2)CC1 (stereo not shown) [RU-0833929] |  |  |  |  | 13.9 | 1.54 | IC50 (SARS-CoV-2 NSP14 inhibition: IC50, LUM % inhibition): > 125 µM |
| Cc1sc(C(=O)NCc2cccc3cnn(C)c23)cc1S(=O)(=O)N1CCn2nccc2C1 [TDI-014534, Cc1sc(C(=O)NCc2cccc3cnn(C)c23)cc1S(=O)(=O)N1CCn2nccc2C1] |  |  |  |  |  |  | IC50 (TDI-015051 series, retrospective VS set, biochemical MTase assay, read-out: Merged pIC50 (converted)): 0.0324 µM |
| O=C(NCC(O)CCNC(=O)c1ncc2ccccn12)c1ccc2[nH]ncc2c1 (stereo not shown) [RU-0834119] |  |  |  | > 125 | 12 | 13.9 |  |
| Cc1cc(C(=O)NC2CC(O)(CNC(=O)Cc3c(C)cccc3F)C2)cc(C)c1O (stereo not shown) [RU-0834139] |  |  |  | > 125 | 20.6 | 1.17 |  |
| O=C(N[C@H]1CN(C(=O)c2ccc3[nH]ncc3c2)C2(CCC2)C1)c1cc(F)c2n[nH]nc2c1 [RU-0833678] | 0.884 | 11.3 | > 62.5 |  |  |  |  |
| O=C(Cc1cccc2c1CCC2)NCc1ccccc1CNC(=O)c1ccc2[nH]ncc2c1 [RU-0834087] |  |  |  | > 125 | 14.6 | 264 |  |
| Cc1c(S(=O)(=O)N2Cc3c[nH]nc3[C@H](C)C2)cc(C(=O)NCc2c(F)ccc3occc23)n1C [TDI-015657, Cc1c(S(=O)(=O)N2Cc3c[nH]nc3[C@H](C)C2)cc(C(=O)NCc2c(F)ccc3occc23)n1C] |  |  |  |  |  |  | IC50 [8]: 0.000217 µM |
| CC(NC(=O)NCc1cccc(NC(=O)c2cccc(F)c2)c1)c1ccc(N2CCCC2=O)cc1 (stereo not shown) [RU-0833938] |  |  |  | 37.2 | 78.2 | 1.25 |  |
| Cc1cc(C(=O)N2CCC(C(C)CNC(=O)c3ncn4ccccc34)CC2)ccc1O (stereo not shown) [RU-0834092] |  |  |  | > 125 | 12.2 | 51.9 |  |
| C[C@@H](NC(=O)CNc1cccc(C(=O)N(C)C)c1)c1ccc(Cl)cc1Cl [RU-0833646] | 1.3 | 1.23 | > 62.5 |  |  |  |  |
| O=C(Nc1ccnn1Cc1ccc(Cl)cc1Cl)[C@H]1CC(=O)N(c2ccc3c(c2)OCCO3)C1 [RU-0833632] | -2.2 | 0.32 | > 62.5 |  |  |  |  |
| Cc1c(S(=O)(=O)c2cccc(C#N)c2)cc(C(=O)NCc2c(Cl)cnn2C)n1C [TDI-016685, Cc1c(S(=O)(=O)c2cccc(C#N)c2)cc(C(=O)NCc2c(Cl)cnn2C)n1C] |  |  |  |  |  |  | IC50 [8]: 0.0167 µM |
| Cc1cc(C(=O)NCC2CCN2C(=O)c2cc(-c3cccc(F)c3)no2)c(C)cn1 (stereo not shown) [RU-0833939] |  |  |  | > 125 | 9.26 | 2.25 |  |
| O=C(NCc1ccc2c(c1)CN(C(=O)Cc1cccc(O)c1F)C2)c1c(F)cccc1F [RU-0834190] |  |  |  | 35.2 | 59.1 | 0.883 |  |
| Cc1nccn1-c1cc(CNC(=O)[C@H]2CC(=O)N(c3cccc(C(F)(F)F)c3)C2)ccn1 [RU-0833654] | 20.9 | -1.03 | > 62.5 |  |  |  |  |
| Cc1ccc(C(=O)NCc2nnc3cccnn23)cc1NC(=O)Cc1ccncc1 [RU-0833637] | 0.946 | 7.34 | > 62.5 |  |  |  |  |
| Cc1c(S(=O)(=O)c2ccc3c(cnn3C)c2)cc(C(=O)NCc2c(F)ccc3cnn(C4CC4)c23)n1CCCC#N |  |  |  |  |  |  | IC50 [8]: 0.00257 µM |

| Structure (SMILES) | SARS-CoV-2 NSP14 inhibition: Hill slope [2] | Emax [3] [%] | IC50 [4] [µM] | IC50 [5] [µM] | Emax [6] [%] | SARS-CoV-2 NSP14 inhibition: Hill slope [7] | further results |
| --- | --- | --- | --- | --- | --- | --- | --- |
| Cc1ccc(N(C)S(=O)(=O)c2cccc(C(=O)NC3CCOc4ccccc43)c2)cc1 (stereo not shown) [RU-0833906] |  |  |  | > 125 | 11.5 | 6.76 |  |
| Cc1ccc(S(=O)(=O)NC[C@H]2CCCN(C(=O)[C@H](O)c3ccccc3)C2)cc1 [RU-0833633] | 1.32 | 6.04 | > 62.5 |  |  |  |  |
| Cc1cc(CC(=O)NCCC(O)CNC(=O)c2ccc3c(c2)COC3)ccc1F (stereo not shown) [RU-0834116] |  |  |  | > 125 | 16.3 | 11.5 |  |
| COc1ccc(S(=O)(=O)N2CCc3ccccc32)cc1C(=O)N[C@H]1CCSc2ccccc21 [RU-0833660] | 84.9 | 1.05 | > 62.5 |  |  |  |  |
| O=C(N[C@@H]1CC[C@H]1NC(=O)c1ccnc2[nH]ccc12)c1cccc(C2CC2)c1 [RU-0833670] | 10.9 | 3.36 | > 62.5 |  |  |  |  |
| CN(C)c1cccc(C(=O)NC2CCC(CCNC(=O)c3ccc(O)c(F)c3F)C2)c1 (stereo not shown) [RU-0834084] |  |  |  | > 125 | 17 | 788 |  |
| O=C(NCC1CN(C(=O)c2ccc3[nH]ccc3c2)C1)c1cccc2cn[nH]c12 [RU-0833668] | 17.8 | 10.4 | > 62.5 |  |  |  |  |
| CCn1cc(Cl)c(C(=O)NCc2ccc(CNC(=O)c3ccc4[nH]ncc4c3)cc2)n1 [RU-0834111] |  |  |  | 77 | 49 | 0.488 |  |
| COc1ccc(S(=O)(=O)CCc2noc(C(=O)NCc3cccc(OC)c3)n2)cc1 [RU-0833880] |  |  |  | > 125 | 16 | 33.7 |  |
| Cc1ccc(NC(=O)CN2C(=O)COc3ccc(S(=O)(=O)N4CCC(C)CC4)cc32)c(Cl)c1 [RU-0833887] |  |  |  | > 125 | 14.8 | 9.82 |  |
| Cc1cc(C(=O)NC2CCC3(CC2)CC(NC(=O)c2cnn4ccn(C)c24)C3)cc2cn[nH]c12 (stereo not shown) [RU-0834152] |  |  |  | > 125 | 15.5 | 93.8 |  |
| Cc1cc(C(=O)NC2CC(C(C)NC(=O)c3ncn4ccccc34)C2)ccc1O (stereo not shown) [RU-0834137] |  |  |  | > 125 | 39.6 | 0.617 |  |
| C=C1Nc2ncnn2C(C)=C1CCC(=O)Nc1cccc(C(=O)Nc2cccc(C(F)(F)F)c2)c1 [RU-0833910] |  |  |  | > 125 | 34.2 | 0.584 |  |
| CNc1ccc(C(=O)NCc2ccc(CNC(=O)c3nccn4cnnc34)cc2)cc1F [RU-0834185] |  |  |  | 35 | 66.7 | 1.91 |  |
| CC(CNC(=O)c1nc(CCS(=O)(=O)c2ccc(Cl)cc2)no1)c1ccccc1 (stereo not shown) [RU-0386434] | 12.1 | 10.8 | > 125 |  |  |  |  |
| CCN(CC)S(=O)(=O)c1cccc(NC(=O)CNc2cccc(-c3ccnc(C)n3)c2)c1 [RU-0833918] |  |  |  | > 125 | 22.8 | 2.12 |  |
| Cc1cc(F)cc(CC(=O)NCC2COC(CNC(=O)c3n[nH]c4cc(C)ccc34)C2)c1 (stereo not shown) [RU-0834199] |  |  |  | > 125 | 12.1 | 51 |  |
| O=C(Cc1c(F)cccc1F)NCC1CN(C(=O)c2cc3ccccn3c2)C1 [RU-0833922] |  |  |  | 50.3 | 76.9 | 1.19 |  |
| COc1cccnc1C(=O)NC[C@H]1C[C@H](NC(=O)c2cccn3nccc23)C1(C)C [RU-0833663] | 11 | 4.81 | > 62.5 |  |  |  |  |
| Cn1c(CNc2cccc(C(=O)NCc3nncn3C3CC3)c2)nnc1-c1ccncn1 [RU-0833655] | 34.9 | -1.73 | > 62.5 |  |  |  |  |
| Cc1cc(C(=O)NCc2cccc(CNC(=O)C34CCC(CO)(CC3)C4)c2)cc2cn[nH]c12 [RU-0834169] |  |  |  | > 125 | 15.2 | 2.59 |  |
| Cc1cc(C(=O)N2Cc3ccc(CNC(=O)c4ccc5[nH]ncc5c4)cc3C2)ncc1CO [RU-0834094] |  |  |  | > 125 | 66.7 | 0.683 |  |
| NC(=O)[C@@H](CNC(=O)NCc1ccc(Cl)cc1Cl)Cc1ccc(F)cc1 [RU-0833628] | -0.981 | 0.476 | > 62.5 |  |  |  |  |
| O=C(NCc1ccc(CNC(=O)c2n[nH]c3ccccc23)cc1)c1c(F)cc(O)cc1F [RU-0834170] |  |  |  | > 125 | 15.3 | 96.9 |  |
